What all share (assay): uncleaved DNA left, log2 of reads against the no-enzyme library (log2 ratio); higher = less cleavage (more negative = more Rep cleavage of the k-mer); sequences stand for … in CTCGTCCG…ACCGGAGA
Assay [1] deals with T1, Rep nickase domain of Muscovy duck circovirus.
T1 sequence (residues 1-111 of Rep, tag left off): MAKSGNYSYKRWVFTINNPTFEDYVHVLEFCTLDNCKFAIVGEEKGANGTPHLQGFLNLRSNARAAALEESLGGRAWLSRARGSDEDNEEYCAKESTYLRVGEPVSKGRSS
As for the experimental part: (§1)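 A pool of 90-nt single-stranded DNAs with seven random bases just before the constant AC of the nick site (name = the seven bases) was cut by 3 µM recombinant His6-SUMO-tagged Rep nickase domain (300 nM DNA, 50 mM HEPES pH 8.0, 50 mM NaCl, 1 mM MnCl2, 1 h, 37 °C, three replicates). Uncut DNA was amplified and sequenced.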

Assay [2] deals with T2, Rep nickase domain of banana bunchy top virus.
T2 sequence (residues 1-94 of Rep, tag left off): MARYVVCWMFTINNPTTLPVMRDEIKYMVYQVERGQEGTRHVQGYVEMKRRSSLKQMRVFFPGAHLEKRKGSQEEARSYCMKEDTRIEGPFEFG
As for the experimental part:
as §1

The test system of assay [3] is T3, Rep nickase domain of cabbage leaf curl virus.
T3 sequence (residues 1-116 of Rep, tag left off): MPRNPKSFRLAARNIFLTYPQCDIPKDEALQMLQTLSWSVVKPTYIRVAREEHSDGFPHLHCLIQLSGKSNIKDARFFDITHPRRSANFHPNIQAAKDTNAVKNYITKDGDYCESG
As for the experimental part: as §1
The subject of assay [4] is T4, Rep nickase domain of chickpea chlorotic dwarf virus.
T4 sequence (residues 1-124 of Rep, tag left off): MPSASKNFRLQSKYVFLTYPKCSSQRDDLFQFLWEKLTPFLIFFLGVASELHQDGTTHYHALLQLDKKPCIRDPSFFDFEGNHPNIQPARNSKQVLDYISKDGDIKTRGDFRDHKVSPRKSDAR
As for the experimental part:
as §1

Assay [5] relates to T5, Rep nickase domain of faba bean necrotic yellows virus.
T5 sequence (residues 1-98 of Rep, tag left off): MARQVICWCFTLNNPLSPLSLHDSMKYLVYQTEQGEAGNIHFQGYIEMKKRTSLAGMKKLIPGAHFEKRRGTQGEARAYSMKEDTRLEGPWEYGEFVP
As for the experimental part:
as §1

For assay [6], the system named is T6, Rep nickase domain of maize striate mosaic virus.
T6 sequence (residues 1-117 of Rep, tag left off): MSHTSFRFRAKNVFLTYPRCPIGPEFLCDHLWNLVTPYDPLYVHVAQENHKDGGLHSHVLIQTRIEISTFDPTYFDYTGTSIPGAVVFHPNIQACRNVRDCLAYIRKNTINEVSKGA
The protocol: as §1
The test system of assay [7] is T7, Rep nickase domain of porcine circovirus 2.
T7 sequence (residues 2-116 of Rep, tag left off): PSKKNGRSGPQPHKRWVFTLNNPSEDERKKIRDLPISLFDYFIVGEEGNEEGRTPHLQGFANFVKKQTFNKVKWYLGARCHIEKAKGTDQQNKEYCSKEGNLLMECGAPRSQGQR
The protocol: as §1
For assay [8], the system named is T8, Rep nickase domain of tomato golden mosaic virus.
T8 sequence (residues 1-124 of Rep, tag left off): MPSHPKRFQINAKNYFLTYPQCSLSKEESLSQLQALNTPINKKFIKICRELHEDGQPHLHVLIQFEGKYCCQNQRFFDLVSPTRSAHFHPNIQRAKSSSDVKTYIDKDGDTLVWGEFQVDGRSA
The protocol: as §1
The subject of assay [9] is T9, Rep nickase domain of tomato yellow leaf curl virus.
T9 sequence (residues 1-136 of Rep, tag left off): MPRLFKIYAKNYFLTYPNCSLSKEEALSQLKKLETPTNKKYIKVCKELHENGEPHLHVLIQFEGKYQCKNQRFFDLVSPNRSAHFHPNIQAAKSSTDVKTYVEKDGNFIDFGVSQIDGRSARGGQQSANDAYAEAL
The protocol: as §1
Assay [10] has as its system T10, Rep nickase domain of wheat dwarf virus.
T10 sequence (residues 1-137 of Rep, tag left off): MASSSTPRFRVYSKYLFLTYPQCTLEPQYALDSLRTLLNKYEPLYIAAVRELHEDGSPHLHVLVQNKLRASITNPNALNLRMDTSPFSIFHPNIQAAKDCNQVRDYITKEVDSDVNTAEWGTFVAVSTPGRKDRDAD
As for the experimental part: as §1

This is one part of the list. One pool of 16,384 single-stranded DNAs met each Rep nickase domain in vitro (3 µM enzyme, 1 h, 37 °C); shown is the middle of each 90-letter strand. Uncut reads are compared with the no-enzyme pool on a log2 scale; the lower, the more was cut; hits are not called. Because reads are shares of a total, they shift together, so uncut sequences can rise above 0 when many others are cut.

In the case of GTAACGT, the “uncleaved DNA left (log2)” value in assay [1] came to 0.0131; in assay [2], 0.134; in assay [3] it was 0.192; in [4], 0.673; in assay [5] it was 0.0454; in assay [6] it was 1.18. Also, the “uncleaved DNA left (log2)” value in assay [7] amounted to 0.134; in assay [8] it was 0.104; in [9], 0.175; in assay [10] it was 0.109.

For GAAAAGT, the “uncleaved DNA left (log2)” value in [1] was 0.119; in [2] it was 0.121; in assay [3], -0.069; in [4], -1.06; in assay [5], 0.0478; in assay [6], -0.0127. Further, the “uncleaved DNA left (log2)” value in assay [7] is -0.0555; in assay [8], -0.00308; in assay [9] it was 0.0392; in assay [10], 0.0091.

For CTGTAAG, the “uncleaved DNA left (log2)” value in assay [1] is 0.0979; in assay [2], 0.0564; in [3], -0.659; in assay [4] it was -0.195; in assay [5] it was 0.171; in assay [6] it was -1.15. Further, the “uncleaved DNA left (log2)” value in assay [7] was 0.31; in assay [8], 0.045; in assay [9], 0.165; in [10] it was -0.00852.

As to TTTCTCT, the “uncleaved DNA left (log2)” value was 0.00456 in assay [1]; 0.00325 in assay [2]; 0.103 in assay [3]; -1.93 in [4]; 0.0764 in assay [5]; -0.224 in assay [6]. Also, the “uncleaved DNA left (log2)” value in assay [7] was -0.328; in assay [8], -0.0371; in assay [9] it was -0.00268; in assay [10], -0.0451.

As to CGGTAGT, the “uncleaved DNA left (log2)” value in assay [1] is -1.05; in assay [2], -0.141; in assay [3], -0.113; in assay [4] it was -0.0746; in assay [5], -0.296; in [6], -0.142. The “uncleaved DNA left (log2)” value was -3.05 in assay [7], -0.109 in [8], -0.0531 in [9] and -0.154 in assay [10].

Consider GTGCGGA, for which the “uncleaved DNA left (log2)” value in [1] is -0.13; in assay [2], -0.0311; in assay [3] it was -0.255; in assay [4] it was 0.202; in [5], -0.0916; in assay [6], -0.421. Besides, the “uncleaved DNA left (log2)” value was -0.0164 in assay [7], -0.0523 in assay [8], -0.0429 in assay [9] and -0.0965 in assay [10].

CATTCCT: the “uncleaved DNA left (log2)” value in assay [1] was -3.39; in [2], -3.23; in assay [3] it was -0.287; in assay [4] it was -2.96; in assay [5] it was -0.185; in [6], -0.749. Also, the “uncleaved DNA left (log2)” value in [7] was -3.53; in [8], -0.127; in assay [9], -0.00964; in [10] it was -0.162.

Take CTATGCC: the “uncleaved DNA left (log2)” value in [1] was 0.126; in [2], -0.0679; in assay [3] it was -0.316; in assay [4], -0.55; in assay [5] it was 0.0752; in assay [6], -1.03. The “uncleaved DNA left (log2)” value in assay [7] is -0.335; in assay [8] it was 0.00914; in assay [9], 0.0714; in [10] it was -0.0644.

CCCAATG: the “uncleaved DNA left (log2)” value in assay [1] was -0.148; in [2], -0.0728; in assay [3] it was -0.503; in assay [4], -0.596; in assay [5] it was -0.000271; in assay [6], -0.912. For the same sequence, the “uncleaved DNA left (log2)” value is 0.0619 in assay [7], -0.0699 in assay [8], -0.034 in assay [9] and 0.0293 in assay [10].

Take GGTAATA: the “uncleaved DNA left (log2)” value in assay [1] came to 0.115; in assay [2], 0.054; in assay [3], 0.478; in assay [4] it was 1.3; in assay [5], 0.116; in assay [6] it was 1.93. Also, the “uncleaved DNA left (log2)” value in [7] turned out to be 0.0812; in assay [8], 0.0715; in [9], 0.156; in assay [10], 0.215.

On to CGTATCG, for which the “uncleaved DNA left (log2)” value was 0.0355 in [1]; 0.0373 in [2]; -0.799 in assay [3]; -0.136 in assay [4]; 0.00251 in assay [5]; -1.02 in assay [6]. Besides, the “uncleaved DNA left (log2)” value in [7] was 0.123; in assay [8] it was -0.199; in assay [9] it was 0.0505; in assay [10], -0.0862.

For the sequence GAGAGCA, the “uncleaved DNA left (log2)” value in assay [1] was 0.0986; in [2], 0.081; in assay [3], 0.24; in assay [4], 0.402; in assay [5], 0.0212; in [6], 0.285. In addition, the “uncleaved DNA left (log2)” value in assay [7] is -1.84; in assay [8], 0.0556; in assay [9], 0.178; in assay [10], 0.147.

For ATAATCG, the “uncleaved DNA left (log2)” value is -0.0381 in assay [1]; -0.0292 in assay [2]; -0.796 in assay [3]; 0.064 in assay [4]; -0.00264 in assay [5]; -1.11 in assay [6]. Also, the “uncleaved DNA left (log2)” value in [7] is 0.0686; in assay [8], -0.0207; in [9] it was -0.1; in [10], -0.0652.

With CCATAGA, the “uncleaved DNA left (log2)” value in assay [1] was 0.031; in assay [2], 0.0622; in assay [3] it was -0.336; in assay [4], -0.293; in assay [5] it was 0.17; in [6] it was -1.11. In addition, the “uncleaved DNA left (log2)” value in assay [7] is 0.117; in assay [8], 0.0854; in assay [9] it was 0.0519; in assay [10], 0.0119.

With TCGCTTG, the “uncleaved DNA left (log2)” value was 0.107 in assay [1]; -0.0305 in assay [2]; -0.115 in [3]; -0.508 in assay [4]; 0.0719 in assay [5]; -0.329 in assay [6]. Further, the “uncleaved DNA left (log2)” value in assay [7] was 0.0489; in [8], 0.118; in [9], -0.0357; in assay [10] it was 0.0485.

For the origin of these results see the supplement of paper PMC7826260.
